Measurements as given in the supplement of paper PMC12632987.
Over roughly 2,300 sequences, “median log2 fold change of GCK-ALFA target abundance (FLAG IP / Myc IP barcode read proportion)” has its median near 0.095; the lowest 2% begin near -0.47. This is one part of the list.

B1: LC3A_147_397 (protein)
chain: AEIIVDVLVKNTPEGKEVVEELIEKLKEVAEKYGKAEVKVEKEVIDENTLYLEITIKIEGISKEDAEKLGNDVADIVDEIDEKYKDIILASLLSIDIEEK
B2: LC3A_3_1605 (protein)
chain: MEELVEEQLERLRAAGFSEAVLEAARRALTALAEKGFEEAAKTLTDELLEAKDLPEEILVDALEEILYEVENKDLNEEEVIKLIKETFRVARLEAEIEEL
B3: LC3A_128_232 (protein)
chain: SELLEDLKEEATAAKAVAKELAAIPEVAEEAAATIAAAEALIALIEAGAPLEEIKAAAQALIAAARKLIAALEKNPNADRVLVNDLEIERANIEDLLEQL
B4: LC3A_28_996 (protein)
chain: SKIDEQIKKALEEAEKAAKAGEPVVITITISKDATQEDIDKVIETMEKIAEILKDIPGSAIVIDIEAGVSQELINKIIDHAEEIEKKYPNVTVIIALDED
B5: LC3A_free_8_2438 (protein)
chain: SNQEFVDKVVEMLDELEEELTKLMKEEGVDELDILELELEIGSTIAEVISNVDSSKEEILKILKEGLERILELAKELGEKIYKKAKELSEKILEEAESML
B6: LC3A_3_1835 (protein)
chain: LEEEVEELLEELREAGHSEEALEAVRELAEALRERGYEEALRTFIELLRELIDLPSELLLELAEEALELVEEEDLSEEELTERIKELARLYRNEAEIEEL
B7: LC3A_28_846 (protein)
chain: SKTEEDIEKALKEAKEAAKKGEPAVIELKVYKGDTEEEIEKIIEALEEIAEILKDLPNQAILINFEEVIDEEHQNKILDKAEEIEKKYPNVTVIIALPEE
B8: LC3A_28_1315 (protein)
chain: MKLEERFKKAIEEVRKAAAAGEPVVVTIEITAEEAKENLEKILELLEELAKEASKAPGATIIVDLDENVPAELRKKIADKADELEKKYPNVTVILAIEDK
B9: LC3A_free_46_2373 (protein)
chain: MEIDIDLYKEGMTEEEAKALAERVAEGIKKIAEELGLEVEVESEVVKNADGSYLVRVKAKIKAPTEEKANEAVKKIVDMMDKIAKETGAAVIISIEKIEP
B10: LC3A_3_1838 (protein)
chain: LEEKKKELLELLKKAGHSEETLKAVKETIDALLAKGYYEAAETFIELLKEDIDLPSEMLLELAKEVLELVETEDLSEEELTERIKELFRLYRNEYEIEEL
B11: LC3A_28_1330 (protein)
chain: SHIEEQLEAAEKAAEEALAKGEDALIEVEISGSTTLEEAEELMERLREIAKKYSPKIKVSIVINLSSSVSQEVIDLIAEKAEEIEKELPNVTVIIALDEE
B12: LC3A_17_595 (protein)
chain: REALRAELEALLAEAAALIAKLAELRPAAAPAAQARLAEAQAKLEAGDLRGAAETLRALADEIAAIFDELEEEGVEEAAVWAMEAGGVSLEAEGLLLKLD
B13: LC3A_free_0_2106 (protein)
chain: MTVVGEVLAITEKALTPEQLKKVKEEMEKIAKELEEEYGMKVEVTVKEVDGRTVFTLKFSKEGLSIEEAIEIVDEVADKLEEKLKELGADVTIYTSVYEE
B14: LC3A_free_46_2315 (protein)
chain: YIGNIIIDIYGVDEETAKKLVEEIKKKAKELAEKYGLELEIKVEIEQNEDGTTYVRIDITLKGEDKEKLEKAVNEIISEVEELAEKYGATAVISYEIEEE
B15: LC3A_28_1119 (protein)
chain: STADAIIAAAKAQVDAAVAAGEETVIEVHIPGSLSQEEVKAVAEEVAALVAAAAEKVKVSLVISLDASVSQEQIDIIADIAEALEKAHPNVNVIIALEER
B16: LC3A_28_729 (protein)
chain: SPLEKSLEAALAEAEAAAAAGKPVVIEITVPGDATQEDIDRLIEALERIAEILAGLKNQTIIINVESGVKQEHIDRIADAAEEIEKKYPNVTVIIALDEE
B17: LC3A_28_1191 (protein)
chain: SLAEESIKSLEEQAKKALESGEPTVLEVNVPSSFTQEDIESLNKAIKEQAEKLKSIPSVTIVINVESGVPQEHIVSLAKTGDEIEEKYPNVTVIIALDED
B18: LC3A_free_39_2263 (protein)
chain: SAAERAAALAALRALAAKTSPEVQAAVLRLGELLKDDPELLKRLREALEKAIAKGPEVVAVFGAEAAEAVERIEAGEPREKAAEEMLKLIENAIEIEEID
B19: LC3A_45_2005 (protein)
chain: MWKITVDLLGKPEVVARAVAAIEAVAAAFSKESGKKVTVDTAEAREALAAEQDAPEVYVTVEIYVDGDEADANALIQAIDKVHEEVGPELASIISREKVP
B20: LC3A_28_1222 (protein)
chain: AAAEAQIAAARAQADAALAAGEEALITVNIGGDTTVEDAERIMDALEAIVARAAGLPAISIVVDVDGDVSQEVIDTIAERGEAIEARFPNVTVIIALDEE
B21: LC3A_132_265 (protein)
chain: SEELLKEALEELKEIVDKIVEALEAGKDPWPYIVELEKKFEEYAKKLSLEETEELAEEVIKYFEERAKERLDPNNKEAIRVLEIIEMLFEGVLIEKELEE
B22: LC3A_free_8_2440 (protein)
chain: DRQEFTNKVSDILDELEEEIEKIGKKHGLDRSTILELQLIVGSIIMEVYLHSDEDKETIIKIAKEGLKELEEEVKSLPEEFQKEVTKAIEKAKKEIEALL
B23: LC3A_free_39_2246 (protein)
chain: MEERMKEALKRAEELAKTLSPEAAKALKELVELLKGNPEALEVVNEGVERLMKEGGDVLAFLKEAVKLVKEMQAEGKSWEEIVKELKELVEDFLNLIPLD
B24: LC3A_3_1383 (protein)
chain: MEEEIKKLLEELKKAGKSEETIKAVKEALELLKERGYEEALKTFIEEVRKLIDFPDETLLALAEDVLNFLKTNDVSEEEATKKIKEIATVYRNELEIEEL
B25: LC3A_28_804 (protein)
chain: SPVRENAERAREEALAQIAAGEPVFVEINIPKDATEEEIEYVTEVIREMAEAAKAAGAERLDVVVDVEQNERAVTAISETEDELRAAGLPVNVVIALEEP
B26: LC3A_28_980 (protein)
chain: NELEKELEKKLKEAKEAAKAKEPAVITIKVKGTTNEEEAEKIIKTLEEIAEILKDIEGSAIIIDIDKGVDPELVDRLIDKAEEIEKKYPKITVIIALDEE
B27: LC3A_28_1104 (protein)
chain: SALEKNLAAALAEVKEAAAKGEEVLVTINVGGDATEEDLELLKKTLKEMAEIAKDLPRLTVIIDLDGEGAEEKANIIGDFADELEKKYPNLTIIIALPED
B28: LC3A_3_1550 (protein)
chain: MDALRAATLAALRAAGHSPEVIAAAAALFDALAARGYDEAARVAAEEARALLHLPDELLLDFFTSVLAYVQTNDASEEELVKRIREEARTVRAEGEIEEL
B29: LC3A_28_860 (protein)
chain: SKTEESIEKARKELEEAKEKGEEVTIEITVTEDVTDEEVEKVIELIDLAAEYSKTVPGISVIIDIEGKLDPEKLQKILDRADEAIKKNPKLNVIFALDEE

molecular target: MAP1LC3A, Q9H492; test: median log2 fold change of GCK-ALFA target abundance (FLAG IP / Myc IP barcode read proportion) (log2 ratio); each designed protein is fused to an ALFA-tag nanobody in HEK293 cells to bring the named protein to FLAG-tagged glucokinase (GCK); Myc marks an untargeted standard; higher = target protein stabilised (more abundant); details: target protein: 3xFLAG-MCP-GCK-ALFA reporter; HEK293 landing pad (RPLP)
How it was run: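 Sequencing of reverse-transcribed, amplified circular RNA barcodes from anti-FLAG and anti-Myc immunoprecipitates provided the readout for an ALFA-nanobody-fused binder library recombined into HEK293 landing-pad cells. Those cells were induced with 2 μg mL^−1 doxycycline, transfected with a plasmid expressing a FLAG-tagged target and a Myc-tagged standard, and lysed after 48 h. Target abundance is the per-binder median log2 ratio of FLAG to Myc barcode read proportions. Only barcodes at a proportion of ≥10^−7 in both replicates and binders with ≥3 barcodes per replicate were kept, with a 10^−6 pseudocount added before the two replicates were pooled.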

In order of rising “median log2 fold change” value:
1. B25  -0.35
2. B6  -0.314
3. B7  -0.293
4. B26  -0.258
5. B21  -0.219
6. B4  -0.185
7. B22  -0.135
8. B5  -0.119
9. B27  -0.0529
10. B13  -0.0524
11. B1  -0.0409
12. B20  0.00582
13. B23  0.061
14. B24  0.127
15. B15  0.129
16. B12  0.135
17. B11  0.151
18. B19  0.156
19. B10  0.174
20. B2  0.175
21. B16  0.197
22. B14  0.207
23. B28  0.244
24. B17  0.259
25. B3  0.266
26. B29  0.289
27. B8  0.302
28. B18  0.523
29. B9  0.708
